Experimental data published in article PMC4242493.
The list shows a part of the results. The list includes weakly bound sequences.

The sequences below were run against MaxL homodimer (UniProt P61244) (assay: universal protein-binding microarray (PBM)). Conditions: PBS-based mixture, 10 nM His-tagged protein dimer, 2% milk, 200 ng/uL BSA, 50 ng/uL salmon testes DNA, 0.02% TX-100; detection with Alexa 488 anti-His …; high values mean tight binding; most listed sequences are background and not binding sites; double strand, one strand shown.
Chain of UniProt P61244 (P61244 whole entry): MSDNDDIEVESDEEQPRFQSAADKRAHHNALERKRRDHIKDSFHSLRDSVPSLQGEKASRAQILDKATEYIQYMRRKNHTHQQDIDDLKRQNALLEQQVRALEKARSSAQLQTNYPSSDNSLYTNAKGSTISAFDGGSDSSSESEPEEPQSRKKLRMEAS

| Sequence | binding signal (normalized occupancy) |
| --- | --- |
| GCTAATTA | 0.071 |
| AGTCTGAC | 0.0742 |
| ATTATGGC | 0.0813 |
| GATGAAAA | 0.0785 |
| ATTTGGTC | 0.0743 |
| CGTTGTCC | 0.0724 |
| CCGGTTAA | 0.0702 |
| AGAACGAA | 0.0747 |
| ATGAACTG | 0.0732 |
| AGACCAGA | 0.0742 |
| CCGTGGAA | 0.0755 |
| ATGTAAAT | 0.0834 |
| AACAGGAC | 0.0697 |
| CGAAAGAC | 0.0659 |
| CCCGGTCG | 0.068 |
| TATAGATA | 0.0879 |
| CGTTTGAA | 0.0775 |
| GCAAGGTA | 0.0757 |
| ACGCCATA | 0.0812 |
| CATTATAA | 0.0866 |
| CCGGGACG | 0.0665 |
| CCACTGAA | 0.0673 |
| AGCGGTCC | 0.0692 |
| AGCGCTTC | 0.0703 |
| ATAAACTG | 0.0733 |

| Sequence | binding signal (normalized occupancy) |
| --- | --- |
| CAGCTAAC | 0.0725 |
| AATCTAAA | 0.0727 |
| GAATAGGC | 0.0787 |
| CTCAGCCC | 0.0722 |
| ATAATCCC | 0.0883 |
| GCGCTAGC | 0.0713 |
| ACGCCGTC | 0.0796 |
| CGGCTCAC | 0.0784 |
| ACAGTGAC | 0.0748 |
| CTAGCGGA | 0.0649 |
| AAGCGTGT | 0.0967 |
| GCCTGAGA | 0.0663 |
| CAACGAAA | 0.0741 |
| AATGGGAG | 0.073 |
| AATATCAC | 0.0848 |
| GAGCATCC | 0.0705 |
| AGAAACCT | 0.0763 |
| ATTACAAT | 0.0775 |
| CTTTACCC | 0.0758 |
| CGATGAAA | 0.075 |
| CTAGATAA | 0.0743 |
| CAACTCCG | 0.0688 |
| GTAGTCGA | 0.0806 |
| CATAAAGG | 0.0773 |
| ACGGTGTA | 0.0823 |

| Sequence | binding signal (normalized occupancy) |
| --- | --- |
| TCTGCAAA | 0.0737 |
| CGCGACCG | 0.0697 |
| ACCAGCGA | 0.0737 |
| ACATCGAC | 0.0736 |
| AGTAGCGC | 0.0686 |
| TATCCCAA | 0.0793 |
| CCGTTCGC | 0.0677 |
| CCCCTACG | 0.0763 |
| GTACCTCA | 0.0765 |
| AATGCAAG | 0.0719 |
| ATTGTTCA | 0.0778 |
| CTCGTGAA | 0.0894 |
| CCACATCG | 0.0796 |
| ACTCTACT | 0.0793 |
| ATAGCGGA | 0.0718 |
| ATGTCAGG | 0.0795 |
| AGAGAAAC | 0.074 |
| ACCTTTAG | 0.0744 |
| GAAAAAAA | 0.0757 |
| GCTTGCAA | 0.0687 |
| AGTCGCGC | 0.0678 |
| CTCCAGAG | 0.069 |
| AGACATCT | 0.0743 |
| AACCGATG | 0.0705 |
| GATATAAA | 0.0756 |

| Sequence | binding signal (normalized occupancy) |
| --- | --- |
| CACCAAGC | 0.0721 |
| GAAGATTC | 0.072 |
| GAATGGAC | 0.0779 |
| TTACCCAA | 0.0803 |
| AGACCGAC | 0.0743 |
| CAGTACGA | 0.0688 |
| ACCAACAC | 0.083 |
| TCATTGCA | 0.0829 |
| CAATTGGC | 0.0716 |
| AGGTGTAG | 0.0785 |
| ACTGCGAG | 0.0737 |
| ATACATTA | 0.0827 |
| ATTACGTG | 0.0901 |
| ACTTCAGC | 0.0691 |
| CAGCCCCG | 0.0702 |
| CGGTGCAA | 0.0717 |
| AGTGGGGG | 0.0842 |
| TCTGCGCA | 0.0723 |
| TACATCGA | 0.0798 |
| GAGCCAGA | 0.0683 |
| CAACTCTA | 0.0757 |
| TACCCACA | 0.0805 |
| CCGACGAC | 0.0752 |
| AACTTGGC | 0.0731 |
| CGGTTATC | 0.0735 |

| Sequence | binding signal (normalized occupancy) |
| --- | --- |
| AGTATCAG | 0.0783 |
| GGGTTACC | 0.0729 |
| AGAATACC | 0.0764 |
| GATTCGGA | 0.0782 |
| AATACCTA | 0.077 |
| AGCTTTCC | 0.0691 |
| GAACGCTC | 0.0703 |
| AGCCCAAC | 0.0747 |
| AAGATCCT | 0.0763 |
| AAGCCAAG | 0.0715 |
| CATGCGGG | 0.121 |
| CCTGACCA | 0.0788 |
| ATGCGACA | 0.0887 |
| AATTGTGC | 0.0772 |
| GATGCGCA | 0.0748 |
| ATTAATAG | 0.0805 |
| AACCAGAT | 0.0788 |
| ATGTTTCG | 0.0823 |
| ATTCGTGG | 0.074 |
| CACAACTA | 0.0799 |
| GATGAATC | 0.0799 |
| AGAATCTC | 0.0755 |
| ACGAAAGA | 0.0677 |
| CTAGGATA | 0.0759 |
| ATGAGAAT | 0.0796 |

| Sequence | binding signal (normalized occupancy) |
| --- | --- |
| ACGGGGTA | 0.0812 |
| AACAAGAT | 0.0772 |
| ACAATATA | 0.078 |
| ACTATACA | 0.0849 |
| AAACTATA | 0.0788 |
| GCAGGGGC | 0.0693 |
| CAGTCAAC | 0.0749 |
| CACAGCCA | 0.0748 |
| AGAGGGGC | 0.0664 |
| ACACGCAA | 0.087 |
| ACTAATAG | 0.0803 |
| GCTCCAAC | 0.0723 |
| AAGGCAAA | 0.0722 |
| CTCCCCAC | 0.083 |
| CATATTCC | 0.0822 |
| AACCACAT | 0.0973 |
| CCCGCTCC | 0.0699 |
| CCAGGAGG | 0.0769 |
| TGGTAACA | 0.079 |
| AAATAGAT | 0.0798 |
| AGATCGAA | 0.0726 |
| CCGAAGAA | 0.0707 |
| ACGAGCGG | 0.077 |
| AAGTTACA | 0.0777 |
| AAAGACTG | 0.0736 |

| Sequence | binding signal (normalized occupancy) |
| --- | --- |
| CGCCTGAG | 0.0661 |
| ACAGGGGG | 0.083 |
| ACACACGA | 0.0911 |
| GCGCGCTA | 0.0788 |
| ATTGGTGG | 0.0738 |
| ATGCGCCC | 0.077 |
| CGGAAGAG | 0.0699 |
| AGTGGTAA | 0.0751 |
| GGATAGTA | 0.0777 |
| GTCGGCCA | 0.0706 |
| GCCTTGAC | 0.0714 |
| GAGGAAGC | 0.0694 |
| ATTTGTTG | 0.0766 |
| CAGTCAGG | 0.0732 |
| CAAACCCG | 0.0714 |
| AAACGGCG | 0.0688 |
| AAACGATT | 0.0732 |
| ATATCCGC | 0.0783 |
| CATTAGTA | 0.0793 |
| GAAACAAC | 0.0771 |
| CCTAAGCC | 0.0716 |
| AAACAGTT | 0.0706 |
